The source gives no read counts; variants with many changes may rest on few reads.
B1: CPEB3 Ribozyme (parent)
chain: UAACAGGGGGCCACAGCAGAAGCGUUCACGUCGCAGCCCCUGUCAGAUUCUGGUGAAUCUGCGAAUUCUGCUGUAUAUCUC

Variants of: B1
Experiment: self-cleavage, relative activity (ratio to wild type); higher = more cleavage; in vitro, sequencing
Outline: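 Libraries of CPEB3 self-cleaving ribozyme mutants came from rounds of error-prone PCR and carried barcodes, which DNA sequencing matched to variants. In vitro transcription used T7 RNA polymerase at 37°C for 5 hours, with a further 15 min in DNase I before EDTA stopped the reaction; the ribozymes cleaved during both steps. The RNA was reverse transcribed with template switching and sequenced on Illumina. Relative activity is the cleaved/total read fraction of a variant divided by that of the unmutated ribozyme, averaged over three batches with at least 5 reads.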
A56U U58C G73A gave a self-cleavage of 0.46. Variant U58C U67A U69C has a self-cleavage of 0.18. Work on U58A U60A G63C yielded a self-cleavage of 0.16. For G55A A57U A64G, the self-cleavage was 0.31. Variant U58G A64U A75G has a self-cleavage of 0.08. With A57G U58G A64G U76C A77G the self-cleavage was 0.11. C59A U69C U78A showed a self-cleavage of 0.23. Variant A56U U69C U78C U80A has a self-cleavage of 0.41. Variant A56G U60C U66C G70U has a self-cleavage of 0.21. With A57G A64G U67C the self-cleavage was 0.31. A57G A64G U67C U72A U78A gave a self-cleavage of 0.29. In the case of A57G A65U U72C, the self-cleavage is reported as 0.27. Variant U54G U58A U60A U69A U74C has a self-cleavage of 0.2. With A56G A57G U72C U74A the self-cleavage was 0.62. U54G U58A U60A gave a self-cleavage of 0.17. A57G A77C U78C showed a self-cleavage of 0.86. In the case of A57U U69A U78C, the self-cleavage is reported as 0.17. With A56U U58A U72C A75G the self-cleavage was 0.16. With A56G U67C U72C the self-cleavage was 0.33. For C59U U78C C79A, the self-cleavage was 1.17. With U58A U69C U80C the self-cleavage was 0.35. A57U U58G U69C U80C gave a self-cleavage of 0.14. With G55A C62U U66C C79A the self-cleavage was 0.17. With U54G U58C U67C C68U U74C the self-cleavage was 0.14. Variant U54G U60C U67C U69C A77U has a self-cleavage of 0.34. For U58C A77G U80A, the self-cleavage was 0.74. In the case of A56U C62U A64U U74G, the self-cleavage is reported as 0.17. In the case of A56U U67G U74C, the self-cleavage is reported as 0.3. A57U U66C A75U A77G gave a self-cleavage of 0.36. A57G A65G U67C showed a self-cleavage of 0.19. Variant U58A U76A A77G has a self-cleavage of 0.43. U60A G63A U78C showed a self-cleavage of 0.61. Work on A57G C59U U69C yielded a self-cleavage of 0.57. U54G A65G C71U U72C gave a self-cleavage of 0.33. A57G A64G A75G showed a self-cleavage of 0.48. Work on A56C A65C U78C yielded a self-cleavage of 0.06. Variant U60A U69A C81A has a self-cleavage of 0.39. A57C A65G A75U U76A U80C showed a self-cleavage of 0.11. With U58C U66C U74C the self-cleavage was 0.34. Work on A57U U72C U80C yielded a self-cleavage of 1.02. For A57G U67C A77G, the self-cleavage was 0.27. In the case of U58C U74A U78C, the self-cleavage is reported as 0.53. A57U U60A U80A showed a self-cleavage of 0.28. In the case of A57C U60A G61A U72C, the self-cleavage is reported as 0.16. U54C U76C A77G showed a self-cleavage of 0.97. Work on U58C U72A U80G yielded a self-cleavage of 0.27. Work on A56G A64G A77U yielded a self-cleavage of 0.72. For A56U A57G G61U A64G U67C, the self-cleavage was 0.12. Work on A56G U60A A65G yielded a self-cleavage of 0.24. Work on A57G U58C U72C yielded a self-cleavage of 0.47. U54G U60C U69C U72C A77U showed a self-cleavage of 0.4. In the case of A57U U67A U69C, the self-cleavage is reported as 0.16. In the case of A57G U58C A77U, the self-cleavage is reported as 0.32. Variant A56U A64U C68A has a self-cleavage of 0.37. In the case of A56G G63C U72C, the self-cleavage is reported as 1.17. Variant C59A U76A U80C has a self-cleavage of 0.25. With A57G U58C U60A A65C U67C the self-cleavage was 0.16. With A56G A64G U66A the self-cleavage was 0.21. For A56G U74C C79A U80C, the self-cleavage was 0.86. In the case of U58C U67A U69A G70A, the self-cleavage is reported as 0.2. A57G U67A U72C showed a self-cleavage of 0.49. For A56U U72C U78C, the self-cleavage was 0.89. Work on U58C U60C U67C yielded a self-cleavage of 0.22. U58C U60C A65G showed a self-cleavage of 0.21. A56U U60A C62G U78A showed a self-cleavage of 0.12. A56G G63U U67A U72C gave a self-cleavage of 0.46. For U58A U66C U72C U74A, the self-cleavage was 0.18. In the case of A56G U60C U67C, the self-cleavage is reported as 0.07. Variant U58C C68A U69C U80A has a self-cleavage of 0.21. With A56U U66C U72C the self-cleavage was 0.16. Work on A56U U76A A77G yielded a self-cleavage of 0.76. A57G U72G G73C gave a self-cleavage of 1.16. With A57G U72G G73A the self-cleavage was 1.17. A57G U66C G73U gave a self-cleavage of 0.43. Work on U58A C62A A64U U74A U80C yielded a self-cleavage of 0.21. Work on U58C C59U U69A yielded a self-cleavage of 0.17. With U58C A64G U72C the self-cleavage was 0.45. Variant U60A U69C U74C has a self-cleavage of 0.38. U58A U67A U69C U72A gave a self-cleavage of 0.14. U54G U67C U74A showed a self-cleavage of 0.32. For U58C U78C U80C, the self-cleavage was 0.76. Work on A57G U67C U69A yielded a self-cleavage of 0.37. A56U U67A U80C showed a self-cleavage of 0.31. A57G U69C U74A showed a self-cleavage of 0.63. Work on C59A U69C U78C U80C yielded a self-cleavage of 0.42. U58C U72C U74A C79A showed a self-cleavage of 0.76. Work on A57G U72G U76A yielded a self-cleavage of 1.06. Work on C59A U67C U69C yielded a self-cleavage of 0.11. U58C A64G C81U showed a self-cleavage of 0.42. Variant A56U A57C U67C has a self-cleavage of 0.23. Work on A57U U72A U76A yielded a self-cleavage of 0.42. A56U U76A U80C showed a self-cleavage of 0.94. With U54G U72A U74A the self-cleavage was 0.71. With A56G A65G U72G U78A the self-cleavage was 0.48. In the case of A57G G70U U74C, the self-cleavage is reported as 0.2. U60A A64G U78A gave a self-cleavage of 0.51. A56G C59U A64G gave a self-cleavage of 0.37. Variant U58C A64G U69G has a self-cleavage of 0.28. U60A U66A U74A gave a self-cleavage of 0.35. Variant A56G U66C U78C has a self-cleavage of 0.19. With A57G G61A U69G the self-cleavage was 0.42. For U58C A65G U67A, the self-cleavage was 0.21. A57G A65G U78C showed a self-cleavage of 0.45. In the case of A57G A65U U67C U74C U80A, the self-cleavage is reported as 0.25. C59A U60C U72A C81G showed a self-cleavage of 0.26. U54G A57G U80C showed a self-cleavage of 0.54. With U60A A65G U76C A77U the self-cleavage was 0.42. U60A U67C U80C showed a self-cleavage of 0.36. Variant A56G A57G C71A U72A has a self-cleavage of 0.2. A56U U72C A75G showed a self-cleavage of 0.85. In the case of A56G U76C U80A, the self-cleavage is reported as 1.1. Work on A56G U67C U78C yielded a self-cleavage of 0.39. With G55A A77G U78A the self-cleavage was 0.46. With A56G U58C U67C G73A the self-cleavage was 0.16. Work on U54G U66C U72C yielded a self-cleavage of 0.37. With U54G U69A U78C the self-cleavage was 0.39. With U60A U66A U72A the self-cleavage was 0.43. In the case of U60A A65G U66C, the self-cleavage is reported as 0.31. For C59A U60A U80A, the self-cleavage was 0.23. A56G U69G U80C gave a self-cleavage of 0.69. U60A U67C U72G showed a self-cleavage of 0.31. G55A A57G U67A U69C gave a self-cleavage of 0.18. In the case of A57G U67C U72G, the self-cleavage is reported as 0.51. U54G A56G A77G U78G showed a self-cleavage of 0.79. U58A U80C C81U gave a self-cleavage of 0.5. U58C U74C U78C gave a self-cleavage of 0.56. U58C G63U U72C gave a self-cleavage of 0.36. Variant A57G U74C U76C has a self-cleavage of 1.22. Work on A56G U58C U80A yielded a self-cleavage of 0.53. For A56U U60A U69A, the self-cleavage was 0.4. A57G U67C U78C gave a self-cleavage of 0.19. With A56G C62G A64U A77U the self-cleavage was 0.53. A57G A64G U69C gave a self-cleavage of 0.42. A56G U69A U72A U78C gave a self-cleavage of 0.79. With U58C C71A U72G U74C A75U the self-cleavage was 0.33. Work on U60A C62G U69C yielded a self-cleavage of 0.25. U54G U60C A77G gave a self-cleavage of 0.4. Variant G55A A57G U72C has a self-cleavage of 0.91. For A57U G63A U66A, the self-cleavage was 0.3. A56G U60A U72C gave a self-cleavage of 0.29. In the case of A57G U60C U80A, the self-cleavage is reported as 0.8. A57G U60C U80C gave a self-cleavage of 0.58. Work on A56G U60C A77G yielded a self-cleavage of 0.31. For U58C U60C A75G, the self-cleavage was 0.12. For A57G U76C A77G, the self-cleavage was 0.86. With G55A C59U U67C the self-cleavage was 0.15. Variant A56U U58C U69C has a self-cleavage of 0.16. With C59U A64G U74A the self-cleavage was 1.18. U60A G73C U78C showed a self-cleavage of 1.08. For A56U C62U A64G, the self-cleavage was 0.18. A56U U69C A77G showed a self-cleavage of 0.42. Work on A56U C59U U72C A77U yielded a self-cleavage of 0.26. With U54G G61A A64U the self-cleavage was 0.41. For G55C U60C U72C U74A A75G, the self-cleavage was 0.24. In the case of A56G A65G U78C, the self-cleavage is reported as 0.31. In the case of A56U C59A U69C U80C, the self-cleavage is reported as 0.17. A56G C59A U78C showed a self-cleavage of 0.09. With A57U U58G U69C the self-cleavage was 0.16. With A56U A65G U69A the self-cleavage was 0.34. Work on A57G C62U A75U A77G yielded a self-cleavage of 0.14. U58C U60G U67C C79A gave a self-cleavage of 0.35. With C59A A64U U74C the self-cleavage was 0.16. For A56U A64U C71U A75G, the self-cleavage was 0.14. With A56U A64G A77G U80C the self-cleavage was 0.54. In the case of U60A U69C G70A C71U U72C, the self-cleavage is reported as 0.32. U54C U78C U80C gave a self-cleavage of 0.75. In the case of C59U U69A U80A, the self-cleavage is reported as 0.7.
